Measured values: EP4574846A1 (Quaerite Biopharm Research (Beijing) Co., Ltd., dated 2025)

Biological target: T1, human VEGFA165 (human, UniProt P15692-4 27-191)
T1 construct: also called antigen VEGFA
T1 sequence (looked up): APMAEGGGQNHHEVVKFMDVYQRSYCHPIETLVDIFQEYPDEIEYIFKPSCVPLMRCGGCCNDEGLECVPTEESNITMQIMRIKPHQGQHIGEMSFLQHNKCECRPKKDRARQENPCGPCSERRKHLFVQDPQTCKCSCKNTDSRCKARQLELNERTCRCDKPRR
Assay: SPR, VEGFA165 on CM5; reference: aflibercept
Set-up: unit not given beside the values

B1: 2V1-SA1-3GS-Fc (Fc fusion)
chain: EVQLVESGGGLVQPGGSLRLSCAVSGRTFSSYTMGWFRQAPGKEREFVVAISKGGYKYDSVSLEARFTISRDNAKNTVYLQMNSLRPEDTAVYYCAATRAYGSSRLRLADTYEYWGQGTLVTVSSGGSEVQLVESGGGLVQPGGSLRLSCAVSGRTFSSYTMGWFRQAPGKEREFVVAISKGGYKYDSVSLEARFTISRDNAKNTVYLQMNSLRPEDTAVYYCAATRAYGSSRLRLADTYEYWGQGTLVTVSS[letters of human IgG1 Fc omitted]
  KD as a fraction of aflibercept's KD: ~0.083
